According to article PMC4336329 (PLoS ONE, 2015):
Screen size: about 310,000 compounds; about 14,000 (4.5%) showed an effect of 50% or more. Effects have a minus sign here. The list shows a part of the results.

What follows are compounds tested against human ether-à-go-go-related gene (hERG) potassium channel (human, UniProt Q12809) (assay: primary screen, population patch clamp on CHO cells stably expressing hERG).
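Note: peak tail current of the secondary pulse compared with the same well before compound.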

Sequence of human ether-à-go-go-related gene (hERG) potassium channel (Q12809 whole entry, looked up): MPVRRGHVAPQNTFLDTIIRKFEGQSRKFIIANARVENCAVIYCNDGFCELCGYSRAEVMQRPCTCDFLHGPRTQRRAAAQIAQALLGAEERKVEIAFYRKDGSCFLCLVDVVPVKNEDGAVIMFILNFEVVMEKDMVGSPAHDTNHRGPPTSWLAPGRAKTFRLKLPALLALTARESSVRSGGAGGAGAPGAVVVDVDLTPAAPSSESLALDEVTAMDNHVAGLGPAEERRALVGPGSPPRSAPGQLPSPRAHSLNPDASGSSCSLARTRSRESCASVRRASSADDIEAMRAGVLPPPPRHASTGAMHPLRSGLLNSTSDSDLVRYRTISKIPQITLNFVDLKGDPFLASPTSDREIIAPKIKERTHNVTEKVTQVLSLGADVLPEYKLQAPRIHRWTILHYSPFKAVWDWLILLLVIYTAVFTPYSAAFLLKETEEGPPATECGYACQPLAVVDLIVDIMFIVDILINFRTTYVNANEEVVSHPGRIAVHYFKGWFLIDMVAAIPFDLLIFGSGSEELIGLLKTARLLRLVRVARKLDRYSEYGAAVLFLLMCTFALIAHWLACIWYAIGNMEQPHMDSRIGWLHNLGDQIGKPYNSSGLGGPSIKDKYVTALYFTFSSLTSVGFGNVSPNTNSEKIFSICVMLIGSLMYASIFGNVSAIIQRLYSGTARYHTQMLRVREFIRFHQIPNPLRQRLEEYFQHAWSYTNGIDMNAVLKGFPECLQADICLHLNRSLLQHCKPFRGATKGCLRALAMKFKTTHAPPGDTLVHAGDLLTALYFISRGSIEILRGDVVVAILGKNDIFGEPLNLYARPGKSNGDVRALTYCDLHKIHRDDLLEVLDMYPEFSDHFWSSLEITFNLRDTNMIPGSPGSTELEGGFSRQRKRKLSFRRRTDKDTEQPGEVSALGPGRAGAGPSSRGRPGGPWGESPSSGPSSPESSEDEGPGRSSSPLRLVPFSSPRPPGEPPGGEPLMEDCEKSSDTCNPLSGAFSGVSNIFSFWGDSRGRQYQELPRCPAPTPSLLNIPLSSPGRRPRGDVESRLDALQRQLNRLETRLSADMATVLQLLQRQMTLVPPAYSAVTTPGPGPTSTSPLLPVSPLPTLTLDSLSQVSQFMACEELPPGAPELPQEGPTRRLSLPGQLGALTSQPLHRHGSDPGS

SMILES | hERG current change (%, negative = inhibition) at 10uM [%]
O=C(NC1CC2CCCC(C1)N2C(=O)Nc1ccccc1)C1CC1 (stereo not drawn) | 6.44
Cc1cc(C)nc(SCc2nnc(SCC(=O)Nc3ccc(C)c(C)c3)o2)n1 | -12.1
CC(C)(C)NC(=O)c1ccc2c(c1)N(CC(=O)N1CCN(c3ccc(F)cc3)CC1)C(=O)C(C)(C)O2 | -33.4
CN(CC1CCCO1)S(=O)(=O)c1ccc(C(=O)Nc2ccccc2F)cc1 (stereo not drawn) | 2.92
Cc1ccc(-c2nc(NCC3CCCO3)sc2C)cc1 (stereo not drawn) | -20.1
CC(C)(C)c1ccc(CSc2ccc(S(=O)(=O)N3CCOCC3)cn2)cc1 | 5.37
O=C(CN1CCN(Cc2ccccc2Cl)C1=O)NCCCN1CCOCC1 | 14.6
CC(NC(=O)NC1CCCCC1)c1ccc2c(c1)OCO2 (stereo not drawn) | -3.57
Cc1ccccc1NC(=O)Cc1nc(COC(=O)Cc2ccccc2F)cs1 | -0.00072
Cc1ccc(C(=O)NCC(=O)O)s1 | 23.8
CN(C)C(=O)COC(=O)c1ccccc1NC(=O)c1ccco1 | -15.7
COC(=O)[C@H]1C[C@@H]1[C@H](NC(=O)[C@H]1C[C@@H]1[C@H](NC(=O)OCc1ccccc1)c1ccccc1)c1ccccc1 | -14.2
CCCCn1c(N)c(N(CCOC)C(=O)c2ccc(-c3cccc(C(F)(F)F)c3)o2)c(=O)[nH]c1=O | -28.8
COc1ccc(CNC(=O)C2CCN(C(=O)c3csc(Nc4ccc(C)cc4)n3)CC2)cc1 | -35.8
CN(C)S(=O)(=O)c1cccc(-c2nn(-c3ccccc3)cc2/C=C2\SC(=S)NC2=O)c1 | 20.1
CN(C(=O)c1cccnc1)c1nc(-c2ccccc2)cs1 | 7.66
CS(=O)(=O)N(CC(=O)NCc1ccc2c(c1)OCO2)c1cccc(Cl)c1 | -22.3
O=C(c1cn(Cc2ccccc2)nc1-c1cccnc1)N1CCc2ccccc2C1 | -40.6
NC(=O)c1nsc(C(=O)N(c2cccc(F)c2)C(C(=O)NCC2CCCO2)c2c[nH]c3ccccc23)c1N (stereo not drawn) | 9.95
COc1ccccc1NC(=O)C(C)N(C)Cc1ccc(Cl)s1 (stereo not drawn) | 19.4
O=C(N/N=C/c1cccs1)C1CC(=O)N(c2ccccc2)C1 (stereo not drawn) | -8.24
CN1CCN(C(c2ccccc2)c2ccc(Cl)cc2)CC1.Cl (stereo not drawn) | -60.9
COc1ccc2c(c1)C(c1ccc(C)o1)=NNC(c1ccccc1)=N2 | 5.95

SMILES | hERG current change (%, negative = inhibition) at 10uM [%]
Nc1nc(N)nc(Cc2ccccc2O)n1 | 2.65
O=S1(=O)CCC(n2nccc2-c2ccccc2)C1 (stereo not drawn) | 5.87
S=C(Nc1ccc(Cl)cc1Cl)N1CCCCC1 | -11.2
Cc1nnc(NC(=O)CSCc2ccccc2)s1 | 12.9
COc1cc(OC)c(-c2nn3c(C4CCCCC4)nnc3s2)cc1OC | -5.29
CCCCCn1c(CNC(=O)c2cccs2)nc2ccccc21 | -18.6
Cc1ccc([N+](=O)[O-])c(OCCCN2C(=O)NC(C)(C)C2=O)c1 | 19.4
Cc1c(C(=O)NCCSCc2cccc(C(F)(F)F)c2)cnn1-c1ccc(Cl)cc1 | -30.6
CCOC(=O)c1cn(CC)c2cc(N3CCSCC3)c(F)cc2c1=O | -38.8
Cc1ccc(S(=O)(=O)N2CN(Cc3ccco3)c3nc4ccccc4nc32)cc1 | -11
Cc1ccc(C(=O)Nc2ccc(N3CCN(S(C)(=O)=O)CC3)cc2)cc1C | 4.63
Cc1cc(C(=O)COC(=O)c2nccnc2N)c(C)n1C | 26.9
CC1(C(=O)O)CCC(C(=O)NCCc2ccccc2)C1(C)C (stereo not drawn) | 15
N#Cc1ccccc1OCc1cccc(S(=O)(=O)N2CCOCC2)c1 | -38.9
FC(F)(F)c1nc2ccccc2[nH]1 | 4.47
COc1ccc(C(O)(C(C)C)C(CN2CCOCC2)c2ccccc2)cc1.Cl (stereo not drawn) | -28
COc1ccc(CCn2c(=N)c(S(=O)(=O)c3ccccc3)cc3c(=O)n4ccccc4nc32)cc1 | 10.9
COc1ccc(OC)c(NC(=O)CSc2nc3c(c(=O)n(C)c(=O)n3C)n2C)c1 | -7.66
Cc1ccc2nc(NC(=O)CN3C(=O)NC4(CCCCC4)C3=O)sc2c1 | -2.4
COc1ccc(C)cc1Nc1nc(C)nc2c1oc1ccccc12.Cl | 33.4
CN(c1ccc(C(=O)Nc2ccccn2)cc1)S(=O)(=O)c1ccccc1 | 8.63
CCOC(=O)c1sc(NC(=O)CCC(=O)O)nc1C | 30.4
